± gives the standard deviation. The list shows a part of the results, in another mix than the full data.
System: MIWI (PIWIL1) piRISC loaded with L1MC piRNA (30 nt)
Experiment: pre-steady-state target cleavage rate (min^-1); MIWI and MILI are mouse PIWI proteins and EfPiwi is from a freshwater sponge; tags in brackets are library labels; higher = faster piRNA-guided slicing of the target
Details: guide: L1MC piRNA 5'p-UAACUAAAUACUAUGCAAGCUGUAGGUCCU; auxiliary factor: 500 nM mouse GTSF1
Procedure, shortened: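 The method was Cleave-'n-Seq, in which uncleaved targets from a transcribed, DNA-blocked target RNA library were sequenced after exposure to active affinity-purified piRISC carrying one synthetic guide, with or without GTSF1 partner protein. Reactions contained 0.1 nM library, 1 nM piRISC and, where present, 500 nM GTSF1 in HEPES–potassium acetate buffer at 33 °C for 0–8 or 0–960 min. Reads were normalised to depth and to weakly complementary targets, three trials were pooled, and k3 was capped at 0.0001 min^-1. The pre-steady-state cleavage rate came from a burst-and-steady-state fit.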

Sequence	pre-steady-state target cleavage rate
UCCUGGAUCAGCAUGCAUAGUAUUUACAAA	0.156 ± 0.034
UCCUCCUACACGAUGCAUAGUAUUUAGAAA	0.14 ± 0.024
UCCUCCUACAGCUUCGAUAGUAUUUAGUUA	0.656 ± 0.052
UCGACCUACAGCUUGCUUAGUAUUUUCAAA	0.329 ± 0.048
UCCUGGAUCAGCUUGCAUAGAAAUUAGUUA	0.0148 ± 0.0062
UCCUGGAACAGCUUGGAUAGUAUUUACAAA	0.0181 ± 0.0059
UCCUGGAUCAGCAACCAUAGUAUUUAGUUA	0.00823 ± 0.0048
UCCUGGAUCAGCUUGCAUAGUAUUAUCUAA	0.188 ± 0.034
UCCUGGAUCAGGUUGCAUAGAAUUUAGUUA	0.0793 ± 0.0096
UCCUGGAACAGCUUGCAUAGUAUAUAGAAA	0.203 ± 0.035
UCCACCUACAGCUUCCAUACUAUUUAGUUA	0.0526 ± 0.02
UCCUGGUACAGCAACCAUAGUAUUUAGUAA	0.0151 ± 0.0073
UCGACCUUCAGCUUGCAUAGUAUUUACAAA	0.385 ± 0.034
UGGACCUUGUGCUUGCAUAGUAUUUAGUUA	0.902 ± 0.071
UCCUGCUAGAGCUUGCAUAGAAUUUAGUUA	0.252 ± 0.025
UCCUCCUACAGCUUGCAAUCUAUUUAGUAA	0.103 ± 0.015
UCGACCUACAGCUUCCAUAGUAUAUAGUUA	0.046 ± 0.016
UCCUCCUACAGGAAGCAUAGUAUUUUCAAA	0.0519 ± 0.017
UCCUGGAUGUCGAACAAUAGUAUUUAGUUA	< 0.0001
UCCUGGUACUGCUUGCAUAGUAAUUAGUUA	0.313 ± 0.047
UCGACCUGACAGCUUGCAUAGUAUUUAGUUA	1.25 ± 0.057
UCCUGCUACAGCUAGCAUAGUAUUAAGUUA	0.855 ± 0.059
UCCUGGAACAGCUUGCAUAGUGAUUUAGUUA	0.0361 ± 0.0085
UCCUGCUUCAGCUUGCAUAGUAAUUAGUUA	0.823 ± 0.043

From the supplement of paper PMC10338343
